Laboratory results from the supplement of paper PMC3724861.
Some of the results follow.

Tested on: T1, Caupolican (Caup) homeodomain DNA-binding domain
T1 sequence: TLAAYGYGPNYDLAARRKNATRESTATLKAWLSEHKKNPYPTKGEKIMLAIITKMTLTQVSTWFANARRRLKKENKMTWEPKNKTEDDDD
Experiment: PBM E-score (8-mer, recovered from the published 9-mer minima) (E-score (dimensionless, -0.5 to 0.5)); Drosophila protein; higher = stronger relative binding preference, active = 0.31 or more
Method: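 Protein binding microarray (PBM): in vitro transcribed/translated Caupolican (Caup) homeodomain DNA-binding domain (residues 214-303) applied at 100 nM to a universal 8-mer PBM array (Agilent AMADID 015681). The 8-mer enrichment score (E-score, range -0.5 to 0.5) was computed, and each 9-mer score is the minimum E-score of its two constituent 8-mers. The E-score is the same for a 9-mer and its reverse complement; 0.31 is the stated binding threshold.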

Sequence	PBM E-score
GAACTAGC	inactive: 0.0335
CTCATGAG	inactive: -0.0458
GCTTCAGA	inactive: -0.113
ATCCAAAA	inactive: 0.0765
ATTAGCTG	inactive: 0.0175
AAACATGC	active: 0.342
AGTAACGC	inactive: 0.00518
GGTTTACA	inactive: 0.268
AAGGCCTG	inactive: -0.168
ACCATACG	inactive: 0.0651
AGCGAATG	inactive: -0.0422
AGCGGGGC	inactive: -0.27
GATGAAAC	inactive: 0.0712
CGGGCGCA	inactive: -0.267
TAATTACA	active: 0.335
AAAGTTTA	inactive: 0.0868
ATCGAAAA	inactive: 0.0577
GCGTCACC	inactive: -0.21
CAGAAACG	inactive: -0.00093
AACCTTCC	inactive: -0.127
CTGAAATA	inactive: 0.0494
CTGCGGGC	inactive: -0.247
CTGCGGCC	inactive: -0.243
GTTCGCAA	inactive: 0.106
ACTATAGT	inactive: 0.0774

Sequence	PBM E-score
AATATCAG	inactive: 0.161
AAAGTACC	inactive: 0.1
TATAGAAA	inactive: 0.118
CCTCCGCG	inactive: -0.218
AGACCGTC	inactive: -0.133
ACATAGGC	inactive: 0.197
ATAGCCAC	inactive: -0.0729
CTTCTACC	inactive: -0.185
CCGATGTA	inactive: 0.159
CAGTCGTA	inactive: -0.00013
GTCTCGCA	inactive: -0.0552
GAAGTACC	inactive: 0.0526
GAAATAGA	inactive: 0.1
GGCCCCCC	inactive: -0.448
ACAACACC	inactive: 0.301
AATCGGGT	inactive: 0.00849
CATTAAAG	inactive: 0.131
CGCTAGAC	inactive: -0.0864
CGCCGGCG	inactive: -0.219
CTTAAAAC	inactive: 0.0539
GGGGAAGA	inactive: -0.15
ATCGCTAG	inactive: -0.00841
TGCGAACA	inactive: 0.217
AATGACGG	inactive: 0.00505
CACAGGGG	inactive: -0.17

Sequence	PBM E-score
CACTGTGC	inactive: -0.0261
AAAATGAG	inactive: 0.0045
CTGGTAAC	inactive: 0.115
CCTGTCGA	inactive: 0.0635
AGTTGCCA	inactive: -0.152
CTTCCCTA	inactive: -0.19
ACTCCAAA	inactive: -0.00632
ACCATCCC	inactive: -0.0727
GGGACCCC	inactive: -0.285
AAGGAGGT	inactive: -0.099
CTGCTAAC	inactive: -0.0204
ACCACACC	inactive: -0.116
CACCTTCA	inactive: -0.029
ACCCGTGA	inactive: -0.0895
AGCCGCTG	inactive: -0.187
AGGTCGGC	inactive: -0.121
AGATCCCT	inactive: -0.128
AACTCTAG	≥ 0.0585
AGCGCCAT	inactive: -0.171
ACGGAGTG	inactive: -0.0735
CAAGTACC	inactive: 0.159
ATATGCGG	inactive: 0.0383
AGCCGCTC	inactive: -0.154
CTCCTCGC	inactive: -0.182
AAATCGGT	inactive: -0.00424

Sequence	PBM E-score
TAGGAGAA	≥ 0.0625
ACTCGAGC	inactive: -0.0161
CCCTTCAA	inactive: -0.0942
AAACTCGT	inactive: 0.0614
CCCCTGAC	inactive: -0.0543
GATTCTCC	inactive: -0.19
ATGACCGG	inactive: -0.05
TATGTGGA	inactive: 0.0929
AGTATTTC	inactive: 0.082
CACTCAGA	inactive: -0.0336
AGCAGGAC	inactive: 0.0602
GTGGATTA	inactive: 0.0344
GTGGCCGA	inactive: -0.15
CAGTTAGC	inactive: -0.126
AAACTGAG	inactive: -0.0599
AACGATCA	inactive: 0.0876
CCCGTACC	inactive: -0.121
ACTAGGAT	inactive: 0.133
AACAGACT	≥ 0.172
AGCTAGGA	inactive: -0.0268
AAGGGGAA	inactive: -0.113
GCACCCAC	inactive: -0.108
ATAAGCGG	inactive: -0.0674
AATCTGGG	inactive: -0.153
CCCCGAAC	inactive: -0.175

Sequence	PBM E-score
CAGTGGTA	inactive: 0.0762
ACAGGGGC	inactive: -0.0393
AAGACAGT	inactive: 0.0277
AGTAGAAG	inactive: -0.055
AAGATACC	inactive: 0.0465
AGACGTAA	inactive: 0.037
AACCGAAG	inactive: -0.0262
CTCCTGAA	inactive: -0.166
CGGCTGTA	inactive: -0.0275
GCCCTGCA	inactive: -0.173
GCTAGACA	inactive: 0.0882
CCTGCGAG	inactive: -0.197
GGATAGAA	inactive: -0.0396
CACTCTCG	inactive: -0.0359
CATTTTCG	inactive: -0.00917
AAGGGCGT	≥ -0.0867
AGGTAACG	inactive: 0.0252
ATTTTAAG	inactive: 0.00065
ACCGAGAT	≥ -0.0191
TGATTAAA	inactive: 0.125
ACAGGCTA	inactive: 0.0551
CATCGCCC	inactive: -0.0497
CTAAACTA	inactive: 0.11
CGGTTACA	inactive: 0.183
CGTGATAG	inactive: -0.0553

Sequence	PBM E-score
CATTACCC	inactive: -0.0413
CTCGGTCC	inactive: -0.164
CCAGACAC	inactive: 0.05
TCGAATAA	inactive: 0.0696
CGCCCAAG	inactive: -0.21
CCCGTTTC	inactive: -0.132
AGAAAGAG	inactive: -0.0152
GAACAGTC	inactive: 0.0395
ATCTTGGC	inactive: -0.0175
CAAACTAG	inactive: 0.116
ATGAACAT	active: 0.326
CAGGATAG	inactive: 0.0126
AGGTGCCC	inactive: -0.234
AGTGAAAG	inactive: -0.081
ATTCTCGC	inactive: -0.0319
CAAGGTCA	inactive: 0.00506
CCATGCCA	inactive: -0.0932
AAGTAATC	inactive: 0.231
GATACGTA	inactive: 0.0715
ATCTTTCC	inactive: -0.0323
ATGTGTGA	inactive: 0.134
GCTCGGGA	inactive: -0.244
CGGGAGAC	inactive: -0.117
AACATATC	inactive: 0.303
ATCCCGTG	inactive: 0.172

Sequence	PBM E-score
TCCAGGGA	≥ -0.0903
ACAGGGCG	inactive: -0.0411
CACACTCC	inactive: -0.0969
AAGGGCGA	inactive: -0.114
AGGAGCTG	inactive: -0.165
AGCACCCT	inactive: -0.0748
GTTATGTA	inactive: 0.276
ACTCAGGC	inactive: -0.105
CCTGTCAA	inactive: 0.172
CTGAATGC	inactive: -0.146
AGCGCCAG	≥ -0.147
GGCATGGA	inactive: -0.0635
ATCCATTG	inactive: 0.0117
AACCTCGA	inactive: -0.0635
CTAAGAGC	inactive: -0.16
AGCAAGCT	inactive: -0.0378
AATCAACC	inactive: -0.0152
AGAAGTGC	inactive: -0.107
AAAAGTAT	inactive: 0.121
AAGGAACC	inactive: -0.00983
ACGGCGTA	≥ 0.0143
GTGTTCTA	inactive: 0.206
ATTTGAGA	inactive: 0.048
CGAATCAC	inactive: 0.00894
TAATGGAA	inactive: 0.0857

Sequence	PBM E-score
AAAATACC	inactive: 0.0751
AAGACCCC	≥ -0.0916
ACGCTGAG	inactive: -0.175
ACTCACCA	inactive: 0.0217
CGATCCAG	inactive: -0.13
GTTCGGCA	inactive: 0.012
TAGACTGA	inactive: -0.0421
CTTCTAAA	inactive: 0.0632
ACGATGAT	inactive: 0.0637
AGGTGGAT	inactive: -0.0673
CTTTTCTA	inactive: -0.0577
ATCAGTTA	inactive: 0.151
ATGAGGTA	inactive: 0.114
AAGCGGAT	inactive: -0.113
AAGACGTA	inactive: 0.0818
GACTAAGA	inactive: -0.0118
CTAAATTC	inactive: 0.0449
CGGTTCAC	inactive: -0.149
AACGTTAG	inactive: -0.0541
GGGTACTA	inactive: 0.152
CACTCCTA	inactive: 0.0257
CGTGGCGA	inactive: -0.179
ATAAAAAA	inactive: 0.0277
TCCGCACA	inactive: -0.0736
TGACACCA	inactive: 0.223

Sequence	PBM E-score
ATTCCACG	inactive: -0.0818
GTGTCCTA	inactive: 0.208
GCGAAGAA	inactive: -0.0006
AGTGGCGA	inactive: -0.0893
GCAACATA	inactive: 0.204
CGGAAGCC	inactive: -0.211
GTGTCTGA	inactive: 0.144
AGTAGTGC	inactive: -0.0269
GCGGAGAC	inactive: -0.0671
AGCGCGTG	inactive: -0.102
TCGGGTAA	inactive: 0.0595
CGGCCTGC	inactive: -0.262
GCCTAAAC	inactive: -0.036
GGCGGCAA	inactive: -0.216
ATGGCCGA	≥ -0.0603
CCAGCTGG	inactive: -0.11
TCACCGCA	inactive: -0.0227
CGTCATAG	inactive: -0.0339
GAACATAA	inactive: 0.282
GGGATGAC	inactive: -0.0792
AGGGCGAC	inactive: -0.13
AACCGCGA	inactive: 0.0077
CGTTCAGC	inactive: -0.0862
ACCGTCAA	inactive: -0.129
